The other results are listed elsewhere or left out. At the low end of the ranking the order means little.

This assay addresses T1, GST-Rok (full length) (UniProt O34857).
T1 sequence: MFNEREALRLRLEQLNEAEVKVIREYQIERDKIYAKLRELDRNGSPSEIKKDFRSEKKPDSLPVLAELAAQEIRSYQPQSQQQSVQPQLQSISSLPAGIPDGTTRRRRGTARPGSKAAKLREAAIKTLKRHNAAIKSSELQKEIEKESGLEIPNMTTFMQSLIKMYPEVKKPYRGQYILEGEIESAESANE
Briefly: protein binding microarray.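 Also: rank score from −0.5 (least bound) to 0.5 (best bound).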 The conditions noted are these: Rok is a gene silencer of Bacillus subtilis; high values mean tight binding; most listed sequences are background and not binding sites; double strand, one strand shown.
For ATGTGTAC, the binding signal was 0.115 E-score.
The value for CTAGTGTA was 0.228 E-score; that for GTAGTGGA was 0.118 E-score; that for CGGAACGA was 0.0202 E-score.
The value for CGTAATCA was -0.0379 E-score; that for AGATAGGA was 0.204 E-score; that for CGCGCTTA was -0.0214 E-score.
The value for AGGGGTGG was -0.292 E-score; that for GGTTGGTA was 0.109 E-score.
The sequence GAGTGGAC displayed a binding signal of -0.094 E-score.
Regarding CTACTCAC, the binding signal amounted to 0.0984 E-score.
The result for ATAGGAGA reads 0.116 E-score; that for GCCCTCCA, -0.391 E-score.
The result for CAGTCTGC reads -0.137 E-score; that for GCGTCGGA, -0.312 E-score; that for AAAACATG, 0.101 E-score.
TAGGAGGA displayed a binding signal of -0.202 E-score.
AACCACTC came in with a binding signal of 0.047 E-score.
The result for TAGACGCA reads -0.0282 E-score; that for ATCGTGTC, -0.0601 E-score.
The result for ACGCTCCC reads -0.245 E-score.
CGACTTTA: the binding signal was -0.0687 E-score.
Take TACCTTCA: the binding signal is -0.0871 E-score.
The value for AACGTCAC was -0.0864 E-score; that for ATAATCGC was 0.244 E-score; that for AGATAAAT was 0.265 E-score.
The sequence AAATCCTC returned a binding signal of -0.027 E-score.
The value for GACCTGAA was 0.0667 E-score; that for GCAGGGAA was -0.158 E-score.
ACTACTAA had a binding signal of 0.386 E-score.
The sequence CTTGATTC yielded a binding signal of 0.0259 E-score.
The result for CATTCGGC reads -0.0951 E-score; that for CGCGCAGC, -0.387 E-score.
The result for ACTGTATC reads 0.172 E-score; that for AAGCTCTC, -0.146 E-score.
The value for CTTAGCGC was 0.101 E-score; that for GCTATACA was 0.201 E-score.
Take AACACTCC: the binding signal is -0.0259 E-score.
In turn, ACTCTGAT displayed a binding signal of -0.0267 E-score.
Turning to CGCTTCAC, the binding signal was -0.21 E-score.
The result for CGCTAATC reads 0.123 E-score.
The result for CTATTGCA reads 0.243 E-score; that for CATCTCCA, 0.235 E-score.
ACTGCTCA gave a binding signal of -0.00811 E-score.
On to CTGACGTA, for which the binding signal is -0.0763 E-score.
CGTTCCGC came in with a binding signal of -0.323 E-score.
The value for CTACGCAG was -0.118 E-score; that for ACGGAATG was 0.193 E-score; that for AAGTCTAC was 0.0289 E-score.
The value for GGCATGTA was 0.203 E-score.
The result for GTCTCCTA reads -0.0431 E-score; that for CTATGAAC, -0.0239 E-score.
CGGACTTA displayed a binding signal of -0.176 E-score.
Sequence ACTACAGC yielded a binding signal of 0.266 E-score.
The value for GTGTCAAA was -0.0635 E-score; that for GCATACGC was -0.114 E-score.
The value for CAGGTAAA was 0.0687 E-score; that for AATCGAGA was 0.0905 E-score.
The result for CTTTTCCA reads -0.058 E-score; that for CGGGTGGC, -0.0716 E-score.
In turn, AGGTTAAG yielded a binding signal of -0.12 E-score.
CATCCCGA displayed a binding signal of -0.0162 E-score.
As to ATGCGATA, the binding signal was 0.138 E-score.
The value for CTTGTAGC was 0.0768 E-score.
The result for AAAGGGGA reads -0.229 E-score; that for CCTCCGAG, -0.367 E-score.
The result for AACTAGTT reads 0.441 E-score; that for GACATCGA, 0.00894 E-score; that for ATGGATTA, 0.209 E-score.
CCGGGGAG had a binding signal of -0.421 E-score.
The value for CACGCCTC was -0.199 E-score; that for ACTCAAGG was -0.109 E-score.
GGATACTA showed a binding signal of 0.211 E-score.
The value for GGCTTCCA was -0.137 E-score; that for GGTCTAAA was 0.0268 E-score.
The sequence ACTGAATG returned a binding signal of -0.0244 E-score.
Sequence ATATAGGG showed a binding signal of -0.0461 E-score.
As for GTTTCGCA, the binding signal is -0.148 E-score.
On to ATCTAAGC, for which the binding signal worked out at 0.0122 E-score.
The result for CAGTGGGA reads -0.294 E-score; that for CTATGCAC, 0.0893 E-score.
The result for AAACCAGG reads -0.226 E-score; that for CCAGAAAC, -0.128 E-score; that for CCGCTCGC, -0.206 E-score.
Sequence GAAGGACC displayed a binding signal of -0.0427 E-score.
The result for CATCTGCA reads -0.0265 E-score.
In turn, ACTCTGGC yielded a binding signal of -0.291 E-score.
The result for AACTAGAG reads 0.107 E-score; that for CGCGCATA, 0.139 E-score.
The result for CGGCAGAG reads -0.303 E-score; that for AAGAGTTA, 0.0655 E-score.
CTAGTTCC displayed a binding signal of 0.188 E-score.
The result for AAAGAATG reads 0.205 E-score; that for TCACGTCA, 0.0091 E-score.
The result for GTCCTCAA reads -0.0773 E-score; that for ACAAGATC, 0.0361 E-score; that for CGCATCTC, -0.177 E-score.
The sequence GGTGAAAA displayed a binding signal of -0.000164 E-score.
The result for TCCTTCCA reads -0.154 E-score; that for CACCGAAA, 0.0776 E-score.
The value for CCCTGAGG was -0.352 E-score; that for AGGCACAG was -0.137 E-score; that for CCATCCTC was -0.27 E-score.
Regarding GTGTGGCA, the binding signal is -0.11 E-score.
The result for ATAAAGCA reads -0.0165 E-score.
The result for CTCCAACC reads -0.263 E-score; that for AGGGCAAC, -0.157 E-score; that for CAGCAATG, -0.0438 E-score.
The sequence ATCCTATG gave a binding signal of 0.106 E-score.
The result for GAGACGGC reads -0.326 E-score; that for CAGTTATA, 0.288 E-score.
For ATCTATCG, the binding signal is 0.334 E-score.
Regarding GGATCCAA, the binding signal was -0.0352 E-score.
ACGCATCT showed a binding signal of 0.0561 E-score.
The value for ATGTGAGC was -0.055 E-score; that for CTACACGC was 0.209 E-score.
On to CGTAGTCC, for which the binding signal was -0.0635 E-score.
ACATCAGG came in with a binding signal of 0.129 E-score.
The value for ATCAAACC was -0.0337 E-score.
The result for AATACAAG reads 0.234 E-score; that for CACTAGAA, 0.224 E-score; that for GTCCTTGA, -0.293 E-score.
The result for CAGCTAGA reads 0.0847 E-score.
AAGCTTCA yielded a binding signal of -0.153 E-score.
In turn, ATGAGAAG gave a binding signal of 0.0915 E-score.
The value for GAAGGCCA was -0.36 E-score; that for AGCCACCG was -0.0803 E-score; that for CTATCACA was 0.234 E-score.
Turning to GGCCGCTA, the binding signal is -0.0662 E-score.
The result for ACTCTAGC reads -0.0939 E-score.
The result for CTTACTAC reads 0.169 E-score.
As for CACGTGAG, the binding signal is -0.136 E-score.
CTGCCGGA came in with a binding signal of -0.123 E-score.
The result for TACTTCCA reads 0.00573 E-score; that for ATTTCAAA, 0.0598 E-score.
The value for AAATGTTC was 0.156 E-score; that for CTGTCCTC was -0.249 E-score.
The result for TGGTTGAA reads -0.0706 E-score; that for CTTGGTAA, -0.0712 E-score; that for AACCTCGC, -0.106 E-score.
Consider CGGGTGCA, for which the binding signal was -0.174 E-score.
The value for GGGTATTA was 0.0968 E-score; that for ATTTCGGA was 0.078 E-score; that for ACTCCAAA was -0.171 E-score.
The value for GTCCGACA was 0.0564 E-score.
The result for GACAGACC reads -0.414 E-score; that for CGAATGAC, 0.0818 E-score; that for ATGTTTAC, 0.189 E-score.
With ATCCATAA, the binding signal was 0.16 E-score.
The value for AAAAACTT was -0.0545 E-score.
The result for ATACGGGC reads -0.183 E-score.
ATCCCCGG returned a binding signal of -0.271 E-score.
The result for CTGTTTAC reads -0.00986 E-score; that for AGACGCGG, -0.304 E-score; that for TATTAGCA, 0.185 E-score.
In turn, AGTGTTAG gave a binding signal of 0.118 E-score.
The result for AAAATAAG reads 0.139 E-score.
The value for AGTGCTTA was -0.0692 E-score.
The result for AGTATGGC reads 0.227 E-score.
In turn, CTCGACTC registered a binding signal of -0.114 E-score.
The value for ATAGGATA was 0.226 E-score.
Take AAAACTAG: the binding signal came out at 0.334 E-score.
The value for ACCATAGG was 0.176 E-score.
The value for TTCCGAAA was 0.0338 E-score; that for ATCGGAAT was 0.127 E-score.
The value for ATGTTTCA was 0.158 E-score; that for AATCATTC was 0.145 E-score; that for AGCTGTGA was 0.0841 E-score.
In turn, AATGAACT gave a binding signal of 0.0863 E-score.
The result for CGGCCCCC reads -0.373 E-score.
The result for CGTGCATC reads -0.105 E-score; that for CTTAGGAA, -0.18 E-score.

For the origin of these results see paper PMC6212790.
